Consider 24 compounds from patent US11618753B2 (priority 2018, dated 2023).

As usually defined, the IC50 is the concentration that gives 50% inhibition.

In this assay the test system is MLKL phosphorylation, HT29-L23 human colorectal adenocarcinoma cells. The assay can be described thus: cells. The following applies: read-out: pMLKL HCS Cell Assay (IC50, uM).
Consider `COc1ncc(-c2ccc3c(NCCO)ncnn23)cc1C(=O)Nc1cnn(Cc2ccccc2)c1` [Example 55, N-(1-benzyl-1H-pyrazol-4-yl)-5-(4-((2-hydroxyethyl)amino)pyrrolo[2,1-f][1,2,4]triazin-7-yl)-2-methoxynicotinamide], for which the IC50 came out at 0.479 µM.

In the case of `CCc1ccc(-c2cc(C(F)(F)F)c3c(N)ncnn23)cc1C(=O)N[C@@H]1CN(C(=O)C(C)C(F)(F)F)C[C@@H]1F` (stereo partly drawn) [Example 977, 5-[4-amino-5-(trifluoromethyl)pyrrolo[2,1-f][1,2,4]triazin-7-yl]-2-ethyl-N-[(3R,4S)-4-fluoro-1-(3,3,3-trifluoro-2-methylpropanoyl)pyrrolidin-3-yl]benzamide], the IC50 was 0.01 µM.

For `COc1ncc(-c2cc(C(F)(F)F)c3c(NC(C)=O)ncnn23)cc1C(=O)N[C@@H]1CN(C(=O)C2CC(F)(F)C2)C[C@@H]1F` [Example 1339, N-[(3R,4S)-1-(3,3-difluorocyclobutanecarbonyl)-4-fluoropyrrolidin-3-yl]-5-[4-acetamido-5-(trifluoromethyl)pyrrolo[2,1-f][1,2,4]triazin-7-yl]-2-methoxypyridine-3-carboxamide], the IC50 was 0.039 µM.

For the compound `COc1ncc(-c2cc(C(F)(F)F)c3c(N)ncnn23)cc1C(=O)NCC[C@H](OC)c1ccc(Cl)cc1` [Example 29, 5-[4-amino-5-(trifluoromethyl)pyrrolo[2,1-f][1,2,4]triazin-7-yl]-N-[(3S)-3-(4-chlorophenyl)-3-methoxypropyl]-2-methoxypyridine-3-carboxamide], the IC50 amounted to 0.106 µM.

Take `Nc1ncnn2c(-c3cc(F)cc(C(=O)N[C@@H]4CN(C(=O)[C@@H](O)C(F)(F)F)C[C@@H]4F)c3)cc(C(F)(F)F)c12` [Example 596, 3-[4-amino-5-(trifluoromethyl)pyrrolo[2,1-f][1,2,4]triazin-7-yl]-5-fluoro-N-[(3R,4S)-4-fluoro-1-[(2R)-3,3,3-trifluoro-2-hydroxypropanoyl]pyrrolidin-3-yl]benzamide]: the IC50 was 0.253 µM.

In the case of `COc1ncc(-c2cc(C(F)(F)F)c3c(N)ncnn23)cc1C(=O)NCC[C@H](O)c1ccc(Cl)cc1` [Example 10, 5-[4-amino-5-(trifluoromethyl)pyrrolo[2,1-f][1,2,4]triazin-7-yl]-N-[(3S)-3-(4-chlorophenyl)-3-hydroxypropyl]-2-methoxypyridine-3-carboxamide], the IC50 is 0.0049 µM.

As to `Nc1ncnn2c(-c3ccc(OC(F)F)c(C(=O)N[C@@H]4CN(C(=O)CC(C(F)(F)F)C(F)(F)F)C[C@@H]4F)c3)cc(C(F)(F)F)c12` [Example 1081, 5-[4-amino-5-(trifluoromethyl)pyrrolo[2,1-f][1,2,4]triazin-7-yl]-2-(difluoromethoxy)-N-[(3R,4S)-4-fluoro-1-[4,4,4-trifluoro-3-(trifluoromethyl)butanoyl]pyrrolidin-3-yl]benzamide], the IC50 came out at 0.0072 µM.

Take `COc1cc(C(=O)N[C@@H]2CN(C(=O)CC(C)C(F)(F)F)C[C@@H]2F)cc(-c2cc(C(F)(F)F)c3c(N)ncnn23)c1` (stereo partly drawn) [Example 583, 3-[4-amino-5-(trifluoromethyl)pyrrolo[2,1-f][1,2,4]triazin-7-yl]-N-[(3R,4S)-4-fluoro-1-(4,4,4-trifluoro-3-methylbutanoyl)pyrrolidin-3-yl]-5-methoxybenzamide]: the IC50 was determined as 0.0042 µM.

Turning to `Cc1ncc(-c2cc(C(F)(F)F)c3c(N)ncnn23)cc1C(=O)NCC(C)(O)C(OC(F)F)c1ccc(F)cc1` (stereo not drawn) [Example 1763, 5-(4-amino-5-(trifluoromethyl)pyrrolo[2,1-f][1,2,4]triazin-7-yl)-N-(3-(difluoromethoxy)-3-(4-fluorophenyl)-2-hydroxy-2-methylpropyl)-2-methylnicotinamide], the IC50 amounted to 0.0037 µM.

As to `Nc1ncnn2c(-c3ccc(OCC(F)(F)F)c(C(=O)N[C@@H]4CN(C(=O)C5CCC(F)(F)C5)C[C@@H]4F)c3)cc(C(F)(F)F)c12` (stereo partly drawn) [Example 1064, 5-[4-amino-5-(trifluoromethyl)pyrrolo[2,1-f][1,2,4]triazin-7-yl]-N-[(3R,4S)-1-(3,3-difluorocyclopentanecarbonyl)-4-fluoropyrrolidin-3-yl]-2-(2,2,2-trifluoroethoxy)benzamide], the IC50 was 0.103 µM.

Consider `COc1ncc(-c2cc(C(F)(F)F)c3c(N)ncnn23)cc1C(=O)Nc1cn(Cc2ccc(C(F)(F)F)cc2)cn1` [Example 1804, 5-(4-amino-5-(trifluoromethyl)pyrrolo[2,1-f][1,2,4]triazin-7-yl)-2-methoxy-N-(1-(4-(trifluoromethyl)benzyl)-1H-imidazol-4-yl)nicotinamide], for which the IC50 came out at 0.42 µM.

For `COc1ncc(-c2cc(C(F)(F)F)c3c(N)ncnn23)cc1C(=O)N[C@@H]1CN(C(=O)C2CCC(F)(F)CC2)C[C@@H]1C` [Example 299, 5-[4-amino-5-(trifluoromethyl)pyrrolo[2,1-f][1,2,4]triazin-7-yl]-N-[(3S,4S)-1-(4,4-difluorocyclo-hexanecarbonyl)-4-methyl-pyrrolidin-3-yl]-2-methoxy-pyridine-3-carboxamide], the IC50 was 0.195 µM.

Take `Cc1ccc(-c2cc(C(F)(F)F)c3c(N)ncnn23)cc1C(=O)N[C@@H]1CN(C(=O)c2cnccc2Cl)C[C@@H]1F` [Example 1013, 5-[4-amino-5-(trifluoromethyl)pyrrolo[2,1-f][1,2,4]triazin-7-yl]-N-[(3R,4S)-1-(4-chloropyridine-3-carbonyl)-4-fluoropyrrolidin-3-yl]-2-methylbenzamide]: the IC50 was determined as 0.0099 µM.

As for `CC(CCNC(=O)c1cccc(-c2c(F)cc3c(N)ncnn23)c1)c1ccccc1` (racemic) [Example 69, 3-{4-amino-6-fluoropyrrolo[2,1-f][1,2,4]triazin-7-yl}-N-(3-phenylbutyl) benzamide], the IC50 is 0.074 µM.

For `COc1ncc(-c2cc(C(F)(F)F)c3c(N)ncnn23)cc1C(=O)NC1CN(C(C)c2cnc(C)nc2C)C[C@@H]1F` (stereo partly drawn) [Example 1396, 5-[4-amino-5-(trifluoromethyl)-pyrrolo[2,1-f][1,2,4]triazin-7-yl]-N-[(3R,4S)-1-[1-(2,4-dimethylpyrimidin-5-yl)ethyl]-4-fluoropyrrolidin-3-yl]-2-methoxypyridine-3-carbox-amide], the IC50 turned out to be 0.033 µM.

As for `COc1ncc(-c2cc(CN3CCC(F)(F)CC3)c3c(N)ncnn23)cc1C(=O)N[C@@H]1CN(C(=O)OCCCF)C[C@@H]1F` [Example 1516, 3-fluoropropyl (3R,4S)-3-(5-{4-amino-5-[(4,4-difluoropiperidin-1-yl)methyl]pyrrolo[2,1-f][1,2,4]triazin-7-yl}-2-methoxypyridine-3-amido)-4-fluoropyrrolidine-1-carboxylate], the IC50 was 0.00062 µM.

As for `COc1ncc(-c2cc(C(F)(F)F)c3c(N)ncnn23)cc1C(=O)NC1CN(C(C)CC(O)C(F)(F)F)C[C@@H]1F` (stereo partly drawn) [Example 1386, 5-[4-amino-5-(trifluoromethyl)-pyrrolo[2,1-f][1,2,4]triazin-7-yl]-N-[(3R,4S)-4-fluoro-1-(5,5,5-trifluoro-4-hydroxy-pentan-2-yl)pyrrolidin-3-yl]-2-methoxypyridine-3-carbox-amide], the IC50 is 0.05 µM.

Take `Cc1nc(C)c(-c2cc(C(F)(F)F)c3c(N)ncnn23)cc1C(=O)N[C@@H]1CN(C(=O)[C@@](C)(O)C(F)(F)F)C[C@@H]1F` [Example 1185, 5-[4-amino-5-(trifluoromethyl)pyrrolo[2,1-f][1,2,4]triazin-7-yl]-N-[(3R,4S)-4-fluoro-1-[(2R)-3,3,3-trifluoro-2-hydroxy-2-methylpropanoyl]pyrrolidin-3-yl]-2,6-dimethylpyridine-3-carboxamide]: the half-inhibitory concentration (IC50) was 0.189 µM.

As for `CCc1c(F)cc(-c2cc(C(F)(F)F)c3c(N)ncnn23)cc1C(=O)N[C@@H]1CN(C(=O)CC(O)(C(F)(F)F)C(F)(F)F)C[C@@H]1F` [Example 567, 5-(4-amino-5-(trifluoromethyl)pyrrolo[2,1-f][1,2,4]triazin-7-yl)-2-ethyl-3-fluoro-N-((3R,4S)-4-fluoro-1-(4,4,4-trifluoro-3-hydroxy-3-(trifluoromethyl)butanoyl)pyrrolidin-3-yl)benzamide], the IC50 was 0.015 µM.

Regarding `COc1ncc(-c2cc(C(F)(F)F)c3c(N)ncnn23)cc1C(=O)N[C@@H]1CN(C(=O)C2(N)CCCC2)C[C@@H]1F` [Example 1675, 5-(4-amino-5-(trifluoromethyl)pyrrolo[2,1-f][1,2,4]triazin-7-yl)-N-((3R,4S)-1-(1-aminocyclopentane-1-carbonyl)-4-fluoropyrrolidin-3-yl)-2-methoxynicotinamide], the IC50 was determined as 0.134 µM.

As to `COc1ncc(-c2cc(C(F)(F)F)c3c(N)ncnn23)cc1C(=O)N[C@@H]1CN(C(=O)C2(C)CCCC(C)(C)O2)C[C@@H]1F` (stereo partly drawn) [Example 328, 5-[4-amino-5-(trifluoromethyl)pyrrolo[2,1-f][1,2,4]triazin-7-yl]-N-[(3R,4S)-4-fluoro-1-(2,6,6-trimethyloxane-2-carbonyl)pyrrolidin-3-yl]-2-methoxy-pyridine-3-carboxamide], the IC50 was determined as 0.157 µM.

On to `COCCCN1CC(F)C(NC(=O)c2cc(-c3cc(C(F)(F)F)c4c(N)ncnn34)cnc2OC)C1` (racemic) [Example 187, 5-[4-amino-5-(trifluoromethyl)pyrrolo[2,1-f][1,2,4]triazin-7-yl]-N-[4-fluoro-1-(3-methoxypropyl)pyrrolidin-3-yl]-2-methoxypyridine-3-carboxamide], for which the IC50 stood at 0.307 µM.

As for `COc1ncc(-c2cc(CN3CCC4(CC3)CC4(F)F)c3c(N)ncnn23)cc1C(=O)N[C@@H]1CN(C(=O)OCC(F)(F)F)C[C@@H]1F` [Example 1613, 2,2,2-trifluoroethyl (3R,4S)-3-{5-[4-amino-5-({1,1-difluoro-6-azaspiro[2.5]octan-6-yl}methyl)pyrrolo[2,1-f][1,2,4]triazin-7-yl]-2-methoxypyridine-3-amido}-4-fluoropyrrolidine-1-carboxylate], the IC50 turned out to be 0.0046 µM.

For the compound `COc1ncc(-c2cc(CN3CCCCC3)c3c(N)ncnn23)cc1C(=O)N[C@@H]1CN(C(=O)[C@@](C)(O)C(F)(F)F)C[C@@H]1F` [Example 1583, 5-{4-amino-5-[(piperidin-1-yl)methyl]pyrrolo[2,1-f][1,2,4]triazin-7-yl}-N-[(3R,4S)-4-fluoro-1-[(2R)-3,3,3-trifluoro-2-hydroxy-2-methylpropanoyl]pyrrolidin-3-yl]-2-methoxypyridine-3-carboxamide], the IC50 is 0.0013 µM.
